According to PubChem BioAssay AID2675 (National Center for Advancing Translational Sciences (NCATS), 2010):
Hit rate of the full screen: of about 280,000 compounds, about 100 (0.036%) were called active. The shares of active, inactive and inconclusive entries below differ from those in the screen. Calls come from the whole dose curve; as a rule, active = well fitted inhibition curve with a large enough effect in the signal ratio, with a control signal flat (not every such curve was filed as active); inconclusive = small, poorly fitted or top-dose-only effect, or effect the other way, or a change in a side signal; inactive = no such curve, though single readings can be large or run the other way; the % refers to the signal ratio. Where the call is inconclusive, the potency comes from a doubtful curve fit. “Side channel” marks fits to a control or component signal instead of the main read-out.

molecular target: Muscleblind-like protein 1 (Homo sapiens) (UniProt Q9NR56); assay: qHTS Assay for Inhibitors of MBNL1-poly(CUG) RNA binding; details: TR-FRET MBNL1-His/biotin-(CUG)12 binding, 665/545 ratio; activity change, negative = inhibition: at 57.5 µM (top of the series)
UniProt Q9NR56, sequence (Q9NR56 whole entry, looked up): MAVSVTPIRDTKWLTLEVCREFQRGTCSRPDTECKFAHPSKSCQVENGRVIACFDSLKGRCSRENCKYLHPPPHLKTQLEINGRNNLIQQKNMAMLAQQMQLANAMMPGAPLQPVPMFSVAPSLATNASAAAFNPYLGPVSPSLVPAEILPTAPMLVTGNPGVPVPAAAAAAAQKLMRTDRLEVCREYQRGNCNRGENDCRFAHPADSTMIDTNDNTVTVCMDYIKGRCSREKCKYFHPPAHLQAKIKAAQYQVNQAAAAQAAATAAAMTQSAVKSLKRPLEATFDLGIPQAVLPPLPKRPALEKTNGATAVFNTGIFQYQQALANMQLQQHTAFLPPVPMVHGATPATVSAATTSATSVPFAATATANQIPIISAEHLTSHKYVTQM
Procedure, shortened: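 Ratiometric TR-FRET (665 over 545 nm, excitation 340 nm) tracks disruption of MBNL1-His/biotin-(CUG)12 complex after 60 min at room temperature, with compounds at 92 nM to 58 uM final.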
% is set by controls: 0 for no effect and ±100 for the full control effect; potency is the fitted concentration of half-maximal effect; tags give direction and shape of the fitted curve or compound fluorescence and quenching.

| Structure (SMILES) | activity change, negative = inhibition | Potency |
| --- | --- | --- |
| O=C(O)Cn1cc(/C=C2/SC(=O)N(CC(=O)N3CCCCCC3)C2=O)c2ccccc21 | inactive: 11.6% |  |
| O=CN1CCN(C(C(=O)NC2CCCCC2)c2cc3c(cc2[N+](=O)[O-])OCO3)CC1 (stereo not given) |  | inconclusive: 31.6 µM [quencher, side channel, single point] |
| O=C1C(=O)c2ccccc2C(O)=C1c1ccccc1F |  | inconclusive: 22.4 µM [quencher, side channel, partial curve] |
| COC(=O)c1cc(=O)c2cccc(OC)c2[nH]1 |  | inconclusive: 5.01 µM [quencher, side channel, partial curve] |
| CC(C)n1cnc2cc(NCc3ccccn3)ccc21 |  | inconclusive: 25.1 µM [quencher, side channel, partial curve] |
| c1ccc(-c2cc3c(ccc4nonc43)nn2)cc1 |  | inconclusive: 2.51 µM [quencher, side channel, full curve, poor fit] |
| N=c1oc2ccc3ccccc3c2cc1-c1nnc2n1CCCCC2 |  | inconclusive: 17.8 µM [quencher, side channel, partial curve] |
| CCCC(=O)Nc1ccc(Cl)c(NC(=O)c2cccnc2)c1 |  | inconclusive: 39.8 µM [quencher, side channel, single point] |
| N#Cc1ccc(C23CC4CC(CC(C4)C2)C3)[nH]c1=O |  | inconclusive: 39.8 µM [fluorescent, side channel, single point] |
| CCC1Oc2nc(SC)nnc2-c2ccccc2N1C(=O)c1ccccc1 (stereo not given) |  | inconclusive: 15.8 µM [quencher, side channel, partial curve] |
| O=C(Nc1nccs1)c1ccc([N+](=O)[O-])cc1Cl |  | inconclusive: 3.16 µM [quencher, full curve] |
| O=c1c(-c2cccc([N+](=O)[O-])c2)[n+]([O-])c2ccccc2n1O |  | inconclusive: 8.91 µM [quencher, side channel, partial curve] |
| Nc1[nH]c(N=NC(=O)c2ccc(Cl)cc2)c2ccccc12 | inactive: -1.21% |  |
| Cc1[nH]cnc1C(=O)N/N=C/c1ccc([N+](=O)[O-])s1 |  | inconclusive: 3.98 µM [quencher, side channel, full curve] |
| CN(C)S(=O)(=O)c1ccc(NC(=O)CCNC(=O)c2ccc([N+](=O)[O-])cc2)cc1 |  | inconclusive: 14.1 µM [quencher, side channel, partial curve] |
| Cc1ccc(Nc2nc(N)nc(CN3CCN(Cc4ccc5c(c4)OCO5)CC3)n2)cc1C | inactive: -11.2% |  |
| CCc1ccc2[nH]c(=O)c(CN(Cc3ccc(OC)cc3)Cc3nnnn3CCOC)cc2c1 |  | inconclusive: 25.1 µM [quencher, side channel, single point] |
| Cc1ccc(NC(=O)NNC(=O)Cn2nc(-c3ccccc3)c(-c3ccccc3)c(C#N)c2=O)cc1 |  | inconclusive: 15.8 µM [quencher, side channel, partial curve] |
| C=CCc1cc(/C=C2/NC(=S)NC2=O)cc(OC)c1O |  | inconclusive: 11.2 µM [quencher, side channel, partial curve] |
| CC(=O)Oc1ccc2oc(/C=C/N(C)C)c([N+](=O)[O-])c2c1 |  | inconclusive: 7.94 µM [quencher, side channel, partial curve] |

| Structure (SMILES) | activity change, negative = inhibition | Potency |
| --- | --- | --- |
| CC(=O)c1ccc(NC(=O)c2c(C)nn(-c3ccccc3)c2Cl)cc1 |  | inconclusive: 7.08 µM [quencher, side channel, partial curve] |
| Cc1c2cnn(CC(=O)N3CCN(c4ncccn4)CC3)c(=O)c2c(C)n1Cc1ccc(F)cc1 | inconclusive: 6.84% [phenotype inactive] |  |
| CC(=O)Nc1ccc(C(=O)OCC(=O)c2ccc(C)c([N+](=O)[O-])c2)cc1 |  | inconclusive: 11.2 µM [quencher, side channel, partial curve] |
| O=C(/C=C/c1ccc([N+](=O)[O-])cc1)Oc1ccc(/C=N/NC(=O)c2ccncc2)cc1 |  | inconclusive: 15.8 µM [quencher, side channel, partial curve] |
| C/C(=N\Nc1nccnc1Cl)c1ccc(F)cc1 |  | inconclusive: 22.4 µM [quencher, side channel, partial curve] |
| COc1ccc(CCNC(=O)c2c(-c3ccccc3Cl)noc2C)cc1 | inactive: 10.9% |  |
| CCCNC(=O)CN(C)S(=O)(=O)c1c(C)cc(C)cc1C | inconclusive: 8.69% [phenotype inactive] |  |
| COc1cc(/C=N/NC(=O)CSc2n[nH]c(=O)[nH]c2=O)cc(OC)c1O |  | inconclusive: 35.5 µM [quencher, side channel, single point] |
| O=C(O)c1cc2nc(-c3ccc(F)cc3)cc(C(F)(F)F)n2n1 |  | inconclusive: 31.6 µM [quencher, single point] |
| C(=N\NC1=Nc2cccc3cccc1c23)/c1ccccc1 | inactive: 0.901% |  |
| Cc1nc2c(c(-c3ccccc3)c1C#N)C(=O)c1ccccc1-2 |  | inconclusive: 4.47 µM [quencher, side channel, partial curve] |
| COc1ccc2c(c1)C=C(C(=O)OCc1cccnc1)CO2 |  | inconclusive: 31.6 µM [quencher, side channel, partial curve] |
| Cn1c(SCc2ccc([N+](=O)[O-])cc2)nnc1-c1ccncc1 |  | inconclusive: 14.1 µM [quencher, side channel, partial curve] |
| Cc1cc[n+](CC(=O)Nc2cc(C(F)(F)F)ccc2Cl)cc1 | inactive: 3.51% |  |
| Nc1ccc(Oc2ccc3c(c2)C(=O)NC3=O)cc1 |  | inconclusive: 39.8 µM [quencher, side channel, partial curve] |
| Cc1cc(C(=O)Cn2cnc3cc([N+](=O)[O-])ccc3c2=O)c(C)n1CC1CCCO1 (stereo not given) |  | inconclusive: 12.6 µM [quencher, partial curve] |
| Cc1cc(O)ccc1N/C=C/c1onc(C)c1[N+](=O)[O-] |  | inconclusive: 2.82 µM [quencher, side channel, full curve, poor fit] |
| Cc1ccc(-c2nnc(Nc3ccc(C(=O)N(C)C)cc3)c3ccccc23)cc1S(N)(=O)=O |  | inconclusive: 15.8 µM [quencher, side channel, partial curve] |
| Cc1cccc(NC(=O)c2c(O)c3ccccc3n(C)c2=O)c1 |  | inconclusive: 25.1 µM [fluorescent, side channel, single point] |
| CCn1c(SCC(=O)N/N=C/c2cccs2)nc2ccccc21 |  | inconclusive: 12.6 µM [quencher, side channel, partial curve] |

| Structure (SMILES) | activity change, negative = inhibition | Potency |
| --- | --- | --- |
| Cc1ccc(NC(=S)NC(=O)c2ccc(Br)o2)c(C)c1 | inactive: -2.64% |  |
| NC(=O)N=Nc1c2[nH]c3ccccc3nc-2c2ccccc12 |  | inconclusive: 3.55 µM [quencher, side channel, full curve] |
| O=C(N/N=C/C(Br)=C/c1ccccc1)c1ccccc1[N+](=O)[O-] |  | inconclusive: 28.2 µM [quencher, side channel, single point] |
| COC(=O)c1cc2c(s1)-c1ccc(OC)cc1CC2 | inactive: 22.1% |  |
| Fc1ccc(-c2ncc3ccccn23)cc1 |  | inconclusive: 14.1 µM [quencher, side channel, partial curve] |
| Cc1ccc[n+](C(C)C(=O)Nc2ccc([N+](=O)[O-])cc2C)c1 (stereo not given) |  | inconclusive: 25.1 µM [quencher, side channel, partial curve] |
| CC1CN(c2nc3ccccn3c(=O)c2C=O)CC(C)O1 (stereo not given) |  | inconclusive: 17.8 µM [quencher, side channel, single point] |
| O=C(CSc1ccc(-c2ccco2)nn1)NCc1ccc(F)cc1 | inactive: 7.95% |  |
| Cc1ccccc1OCC(=O)NCC(=O)OCC(=O)c1ccc2ccccc2c1 |  | inconclusive: 39.8 µM [quencher, side channel, single point] |
| CSc1ccc(C(c2c(C)[nH][nH]c2=O)c2c(C)[nH][nH]c2=O)cc1 |  | inconclusive: 22.4 µM [quencher, side channel, single point] |
| c1ccc2c(c1)Oc1cccc3cccc-2c13 | inactive: 7.56% |  |
| Cc1cc(/C=N/n2c(COc3ccccc3)nc3ccccc3c2=O)c(O)c([N+](=O)[O-])c1 | inactive: 5.52% |  |
| COc1ccccc1NC(=O)CSc1nnc(Cn2cnc3ccccc32)n1C |  | inconclusive: 3.98 µM [quencher, side channel, single point] |
| CC(=O)N1CCN(c2ccc([N+](=O)[O-])c(NCc3cccnc3)c2)CC1 |  | inconclusive: 15.8 µM [quencher, side channel, partial curve] |
| NC(=O)Cc1ccc(Nc2nnc(-c3ccccc3)c3ccccc23)cc1 |  | inconclusive: 14.1 µM [quencher, side channel, partial curve] |
| O=C1c2ccncc2C(=O)N1CO |  | inconclusive: 15.8 µM [quencher, side channel, partial curve] |
| COc1ccc(/C=C/c2ccc3cccc(O)c3n2)c(OC)c1OC |  | inconclusive: 39.8 µM [quencher, side channel, single point] |
| N#CC1=C(N)NC(=S)C(C(N)=O)C1c1ccccc1F (stereo not given) | inactive: -5.31% |  |
| CC1=C/C(=C\C=C(C#N)C#N)N(C)c2ccccc21 |  | inconclusive: 3.55 µM [quencher, side channel, full curve] |
| Cc1nc2ncccn2c1-c1csc(Nc2ccccc2)n1 | inconclusive: 22.1% [phenotype inactive] |  |
